# PubChem BioAssay AID624255 (Broad Institute, 2012)
# Out of some 77,000 compounds screened, about 4,600 (6%) were called active. Inconclusive means that the source gave no clear call. Such entries were picked first, then a sample of the others.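 How the source made its calls: active means mean inhibition above about 93%, with at least 55% of replicates each passing it (limit read from the data, passing the limit was not always enough); inconclusive means only one of those two conditions holds; inactive means neither condition holds.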
# Assay: T. cruzi intracellular proliferation inhibitors, primary screen, cell-based, beta-gal Tulahuen parasites, NIH3T3 host, luminescence (AID 624255)
# Conditions: T. cruzi beta-gal in NIH3T3, GalScreen luminescence, 90 h; at 8.34 µM; stronger effect = higher value
row,SMILES,inhibition
1,COc1cccc(S(=O)(=O)N2CCCCN3[C@H](C2)[C@H](c2ccc(C#CC4CC4)cc2)[C@@H]3CO)c1,inactive: 71.6%
2,Cn1cnc(S(=O)(=O)N2CCCCN3[C@H](CO)[C@H](c4ccc(-c5ccccc5)cc4)[C@H]3C2)c1,inconclusive: 100%
3,COc1ccc(S(=O)(=O)N(C)C[C@H]2Oc3cc(C#CC4CC4)ccc3S(=O)(=O)N([C@H](C)CO)C[C@H]2C)cc1,active: 107%
4,Cc1ccc(-c2ccc([C@H]3[C@@H](CO)N4CCCCN(C(=O)c5ccc(F)cc5)C[C@@H]34)cc2)cc1,active: 113%
5,C[C@@H]1CCCCO[C@@H](CN(C)Cc2ccc(Cl)c(Cl)c2)[C@H](C)CN([C@@H](C)CO)C(=O)c2cc(NC(=O)CCC(F)(F)F)ccc2O1,inconclusive: 65.7%
6,C[C@@H]1CCCCO[C@@H](CN(C)S(=O)(=O)c2cccs2)[C@@H](C)CN([C@H](C)CO)C(=O)c2cc(NS(=O)(=O)c3ccc(Cl)cc3)ccc2O1,inconclusive: 90.6%
7,O=C(CN1CCOCC1)N1CCCCN2[C@H](CO)[C@H](c3ccc(/C=C/c4ccccc4)cc3)[C@H]2C1,active: 99.9%
8,C[C@H](CO)N1C[C@H](C)[C@H](CN(C)S(=O)(=O)c2ccccc2)OCCCC[C@H](C)Oc2ccc(NC(=O)Nc3ccc(C(F)(F)F)cc3)cc2C1=O,active: 104%
9,C[C@H](CO)N1C[C@H](C)[C@H](CN(C)S(C)(=O)=O)Oc2cc(C#CC3CCCC3)ccc2S1(=O)=O,inconclusive: 118%
10,OC[C@H]1[C@@H](c2ccc(C#Cc3cccnc3)cc2)[C@H]2CN(Cc3ccccc3F)CCCCN21,inconclusive: 95.5%
11,CC(C)CC#Cc1cnc2c(c1)C(=O)N([C@H](C)CO)C[C@@H](C)[C@H](CN(C)Cc1ccc(F)cc1)O2,inconclusive: 100%
12,C/C=C/c1ccc([C@@H]2[C@H](C#N)N(c3nc(CC)cs3)[C@H]2CO)cc1,active: 104%
13,Cc1ccc(S(=O)(=O)N2CC[C@@H]3[C@H]2c2cc(-c4ccccc4F)ccc2N[C@@H]3CO)cc1,inconclusive: 97.1%
14,CC(C)CC#Cc1ccc2c(c1)O[C@H](CN(C)CC1CC1)[C@H](C)CN([C@@H](C)CO)S2(=O)=O,inconclusive: 97.4%
15,C[C@H]1CCCCO[C@H](CN(C)S(=O)(=O)c2ccc(Cl)cc2)[C@@H](C)CN([C@@H](C)CO)C(=O)c2cc(NC(=O)Nc3ccc(C(F)(F)F)cc3)ccc2O1,inactive: 75%
16,CC(C)C(=O)Nc1ccc2c(c1)C(=O)N(C)[C@@H]1CC[C@@H](CC(=O)N[C@@H](C)c3ccccc3)O[C@@H]1CO2,inactive: 1.62%
17,CCNC(=O)[C@@H]1[C@@H](CO)[C@@H]2Cn3c(ccc(C4=CCCC4)c3=O)[C@@H]2N1C(=O)CC1CC1,inconclusive: 96.3%
18,O=C(C[C@@H]1CC[C@@H]2[C@H](COC[C@H](O)CN2C(=O)Nc2ccc(Cl)c(Cl)c2)O1)NCc1ccc(Cl)c(Cl)c1,active: 107%
19,CO[C@H]1CN(C)C(=O)c2cc(NS(=O)(=O)CC(F)(F)F)ccc2OC[C@H](C)N(CC2CCCCC2)C[C@H]1C,inconclusive: 51.6%

row,SMILES,inhibition
1,O=C(C[C@H]1C[C@H]2c3cc(NS(=O)(=O)c4ccccc4)ccc3O[C@H]2[C@@H](CO)O1)N1CCCCC1,inactive: 38.8%
2,C[C@H]1CN([C@@H](C)CO)C(=O)c2cccc(NC(=O)Nc3ccc(F)cc3)c2O[C@H]1CN(C)Cc1ccc(-c2ccccc2)cc1,inconclusive: 71.8%
3,CCCNC(=O)N1[C@H](CN(C)C(C)=O)[C@@H](c2ccc(C3=CCCC3)cc2)[C@@H]1CO,inconclusive: 96.8%
4,C[C@@H]1CN([C@@H](C)CO)C(=O)c2cc(NC(=O)Nc3ccc(C(F)(F)F)cc3)ccc2O[C@H]1CN(C)S(=O)(=O)c1cccs1,inconclusive: 77.2%
5,COc1cccc(-c2ccc3c(c2)[C@H]2[C@H](CCN2C(=O)CN2CCOCC2)[C@@H](CO)N3)c1,inconclusive: 97.9%
6,CC(C)CC#Cc1ccc2c(c1)O[C@@H](CN(C)C(=O)C1CCC1)[C@H](C)CN([C@H](C)CO)S2(=O)=O,inconclusive: 99.9%
7,Cc1ccc(S(=O)(=O)Nc2ccc3c(c2)C(=O)N([C@@H](C)CO)C[C@@H](C)[C@@H](CN(C)S(=O)(=O)c2ccc(C)cc2)OCCCC[C@@H](C)O3)cc1,inactive: 91.3%
8,C[C@@H]1CCCCO[C@H](CN(C)C(=O)Nc2ccc3c(c2)OCO3)[C@H](C)CN([C@@H](C)CO)C(=O)c2cc(NS(=O)(=O)c3ccc(Cl)cc3)ccc2O1,inconclusive: 89.4%
9,C[C@@H]1CCCCO[C@H](CN(C)S(=O)(=O)c2ccc(Cl)cc2)[C@H](C)CN([C@H](C)CO)C(=O)c2cc(NS(=O)(=O)c3cccs3)ccc2O1,active: 112%
10,O=C(C[C@H]1CC[C@H]2[C@@H](COC[C@H](O)CN2Cc2ccc(Oc3ccccc3)cc2)O1)Nc1nccs1,active: 191%
11,C[C@@H]1CCCCO[C@@H](CN(C)C(=O)NC2CCCCC2)[C@H](C)CN([C@@H](C)CO)C(=O)c2cc(NC(=O)CCCCCC(=O)Nc3ccccc3N)ccc2O1,inconclusive: 104%
12,O=C(c1cccc(F)c1)N1CCCCN2[C@@H](CO)[C@@H](c3ccc(-c4ccccc4)cc3)[C@@H]2C1,inactive: 32.9%
13,CN(C)CCCNC(=O)C[C@H]1CC[C@@H]2[C@H](COC[C@H](O)CN2CC2CCCC2)O1,inconclusive: 101%
14,C[C@@H]1CCCCO[C@@H](CN(C)Cc2ccc3c(c2)OCO3)[C@@H](C)CN([C@H](C)CO)C(=O)c2cc(NC(=O)Nc3ccccc3)ccc2O1,inconclusive: 99.1%
15,C[C@@H]1CN([C@@H](C)CO)C(=O)c2cc(NS(=O)(=O)c3ccccc3)ccc2O[C@@H](C)CCCCO[C@@H]1CN(C)C(=O)Nc1ccc(C(F)(F)F)cc1,inconclusive: 112%
16,O=C(C[C@@H]1CC[C@H](NC(=O)Cc2cccnc2)[C@@H](CO)O1)Nc1ccc(-c2ccccc2)cc1,inactive: -38.6%
17,COc1ccc(CN(C)C[C@H]2OCCCC[C@H](C)Oc3ccc(NS(=O)(=O)c4ccc(Cl)cc4)cc3C(=O)N([C@@H](C)CO)C[C@@H]2C)cc1,inconclusive: 98.3%
18,N#C[C@@H]1[C@@H](c2ccc(C#CC3CCCC3)cc2)[C@@H](CO)N1S(=O)(=O)c1ccccc1,active: 98.6%
19,CO[C@H]1CN(C)C(=O)c2cc(NC(=O)C3CCC3)ccc2OC[C@@H](C)N(Cc2ccccn2)C[C@@H]1C,inactive: -36.8%

row,SMILES,inhibition
1,COCC(=O)Nc1ccc2c(c1)OC[C@H](C)N(C(=O)c1cccnc1)C[C@@H](C)[C@H](OC)CN(C)C2=O,inactive: 19.9%
2,C[C@@H]1CN([C@@H](C)CO)S(=O)(=O)c2ccc(C#Cc3cccnc3)cc2O[C@H]1CN(C)CC1CCOCC1,inconclusive: 90.8%
3,C[C@@H]1CN([C@H](C)CO)S(=O)(=O)c2ccc(-c3ccncc3)cc2O[C@H]1CN(C)C(=O)Nc1ccc(C(F)(F)F)cc1,inconclusive: 84.8%
4,C[C@@H]1CN([C@@H](C)CO)C(=O)c2cc(C#CC3CC3)cnc2O[C@@H]1CN(C)C(=O)c1ccncc1,inactive: -21.2%
5,Cc1ccc(S(=O)(=O)Nc2ccc3c(c2)C(=O)N([C@H](C)CO)C[C@@H](C)[C@@H](CN(C)CC2CCCCC2)OCCCC[C@@H](C)O3)cc1,inconclusive: 107%
6,COc1cccc(-c2ccc3c(c2)[C@@H]2[C@@H](CCN2C(=O)Cc2ccncc2)[C@@H](CO)N3)c1,inconclusive: 95.2%
7,COc1ccccc1NC(=O)N1CC[C@@H]2[C@H]1c1cc(C#Cc3ccc(F)cc3)ccc1N(C)[C@@H]2CO,inconclusive: 96.1%
8,COc1ccc(CN(C)C[C@H]2OCCCC[C@@H](C)Oc3ccc(NS(=O)(=O)c4ccc(Cl)cc4)cc3C(=O)N([C@@H](C)CO)C[C@H]2C)cc1,inconclusive: 104%
9,C[C@@H]1CN([C@@H](C)CO)C(=O)Cc2cc(NC(=O)c3ccncc3)ccc2O[C@H]1CN(C)S(=O)(=O)c1ccc(F)cc1,inactive: -5.35%
10,CCCN1C[C@@H](C)[C@H](OC)CN(C)C(=O)c2cc(NC(=O)Nc3cccc(OC)c3)ccc2OC[C@H]1C,active: 102%
11,O=C(c1ccccn1)N1CC[C@@H]2[C@H](CO)Nc3ccc(C#Cc4cccnc4)cc3[C@@H]21,inconclusive: 88.7%
12,C[C@@H]1CCCCO[C@@H](CN(C)Cc2ccccc2)[C@@H](C)CN([C@@H](C)CO)C(=O)c2cc(NS(=O)(=O)c3ccc(Cl)cc3)ccc2O1,inconclusive: 95.2%
13,CC(C)NC(=O)Nc1ccc2c(c1)C(=O)N([C@H](C)CO)C[C@@H](C)[C@H](CN(C)C(=O)c1ccncc1)OCCCC[C@@H](C)O2,inactive: 22.3%
14,C[C@H](NC(=O)C[C@H]1C[C@H]2c3cc(NC(=O)Nc4ccc(C(F)(F)F)cc4)ccc3O[C@H]2[C@@H](CO)O1)c1ccccc1,inconclusive: 123%
15,COc1ccc(C#Cc2ccc3c(c2)O[C@@H](CN(C)C(=O)NC2CCCCC2)[C@H](C)CN([C@H](C)CO)S3(=O)=O)cc1,inconclusive: 112%
16,N#Cc1ccc(-c2ccc3c(c2)[C@@H]2[C@@H](CCN2C(=O)C2CC2)[C@H](CO)N3)cc1,active: 96.8%
17,C[C@H]1CN([C@@H](C)CO)S(=O)(=O)c2ccc(C#CC3CC3)cc2O[C@H]1CN(C)C(=O)Nc1cc(F)ccc1F,active: 121%
18,C[C@@H]1CN([C@@H](C)CO)C(=O)c2cc(NS(=O)(=O)c3cccs3)ccc2O[C@@H](C)CCCCO[C@@H]1CN(C)Cc1ccc(C(F)(F)F)cc1,inconclusive: 95.1%
